Test results from the supplement of paper PMC5499739.
In all, about 16,000 sequences were measured (“Z-score”: median about -0.37, highest 2% from about 3.1 on). The list shows a part of the results.

Tested on: RBM10 RRM1-ZnF-RRM2 (GST-tagged construct)
Assay: RNAcompete 7-mer binding Z-score; higher = stronger binding preference
Protocol: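 RNAcompete: 20 pmol GST-tagged RBM10 RNA-binding constructs were incubated with a designed RNA pool of about 241,000 sequences up to 41 nt (1.5 nmol) on glutathione beads for 30 min at 4 °C and washed. Bound RNAs were identified by microarray hybridisation. Each RNA 7-mer is scored by a one-sided Z-score of its enrichment, computed over probes that contain the 7-mer within longer pool sequences.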

Row | Sequence | RNAcompete 7-mer binding Z-score
1 | UAUGAUA | -0.326
2 | AAUGCUC | -0.81
3 | CUUCGUU | -0.836
4 | GUUUCGG | 0.567
5 | GAAACGC | -0.315
6 | ACGCCAG | -0.431
7 | CAACGUA | -0.38
8 | CGAUACA | -0.0561
9 | GGCUGGU | 0.822
10 | CCUUUGC | -0.974
11 | UCUUGAG | -0.606
12 | CUCAAGG | 0.304
13 | CGUGGAU | 1
14 | GCCUUCA | -0.854
15 | CGCGUGC | -0.0853
16 | AAUAGAU | 0.283
17 | UUCCACG | -0.613
18 | CUACGAU | -0.559
19 | AAAGUAU | -0.162
20 | UUAUUGG | 0.414
21 | AAAAGAU | -0.256
22 | UACUGUG | -0.289
23 | ACGCGCU | -0.551
24 | UAACUAA | -0.49
25 | CUCGUUA | -0.734

Row | Sequence | RNAcompete 7-mer binding Z-score
26 | CCACAUG | -0.3
27 | CACUGGC | -0.439
28 | UCGGACG | 0.144
29 | UACGCUU | -0.726
30 | CGGACUG | 0.13
31 | CUUUCGU | -0.81
32 | UAGAGAA | 0.501
33 | UAAGCCG | -0.42
34 | AUUUCUA | -0.77
35 | AUGUGAU | 0.0532
36 | GAAAGAU | 0.359
37 | GGAGGAC | 1.98
38 | GGACGCU | 0.25
39 | CCACGCU | -0.468
40 | CUCCUAU | -0.956
41 | GAGACUC | -0.493
42 | GUUGUGC | 0.192
43 | GAGGUAC | 1.85
44 | AUGUGGG | 3.6
45 | GCCAAAU | -0.508
46 | GGAAGCC | 0.479
47 | ACGUAGA | 0.559
48 | CUAUGUA | -0.541
49 | GUAGUAA | 0.516
50 | CUUACUG | -0.653

Row | Sequence | RNAcompete 7-mer binding Z-score
51 | CUGAAAG | -0.195
52 | GGCAGGG | 2.76
53 | GCAGCAA | 0.0604
54 | UGGGAGG | 4.58
55 | UUAAUAC | -0.544
56 | UCGAAGC | -0.3
57 | UGCCAGA | -0.42
58 | AACUGCU | -0.777
59 | ACCUGGG | 0.457
60 | AAUGGUA | 2.49
61 | GCCAACC | -0.544
62 | GCGCCCU | -0.468
63 | UGCGACG | 0.13
64 | UGGAAAA | 1.15
65 | CCAAAGG | 0.454
66 | UAAAUGG | 1.36
67 | UCUCAAA | -0.712
68 | AAACUGG | 0.683
69 | GAGGUGC | 1.65
70 | GGUAACC | 1.03
71 | ACUCCGA | -0.581
72 | GGUUUAA | 0.589
73 | GACGUUA | -0.198
74 | CAUCUAG | -0.533
75 | UUCGCUA | -0.792

Row | Sequence | RNAcompete 7-mer binding Z-score
76 | CAGACCA | -0.388
77 | AGAGCUA | -0.526
78 | CCACAAG | -0.479
79 | AUAUUAU | -0.369
80 | CAAUAGU | 0.0277
81 | AAACAUU | -0.475
82 | ACUUCUC | -0.879
83 | UUCCCUA | -0.872
84 | UUUGAAG | -0.209
85 | GUUUUGC | -0.249
86 | AUUAACU | -0.65
87 | GCCUCUC | -0.857
88 | GCGAGAC | 0.279
89 | UUUGGCU | -0.566
90 | UGACCCU | -0.777
91 | AUCUGUG | -0.573
92 | UAUCAUA | -0.464
93 | AGUGUGU | 0.527
94 | CGGCAGC | 0.0277
95 | CCGAGAG | -0.286
96 | CAUAGCG | -0.409
97 | UAGACGG | 1.54
98 | UGAAUAA | -0.129
99 | UUAAAAC | -0.493
100 | CCAACUU | -0.927
